{"source": "PubChem BioAssay AID485344", "about": "(National Center for Advancing Translational Sciences (NCATS), 2010)", "note": "Among all 340,000 compounds or so, about 6,900 (2%) were called active. Rule as the data show it: active = inhibition above about 30%; inactive = below that, where a call was filed. The entries are a selection whose mix differs from that of the whole data set. Where no call is shown, the source filed none."}
{"target": "D(2) dopamine receptor (Homo sapiens) (UniProt P14416)", "sequence (P14416 whole entry, looked up)": "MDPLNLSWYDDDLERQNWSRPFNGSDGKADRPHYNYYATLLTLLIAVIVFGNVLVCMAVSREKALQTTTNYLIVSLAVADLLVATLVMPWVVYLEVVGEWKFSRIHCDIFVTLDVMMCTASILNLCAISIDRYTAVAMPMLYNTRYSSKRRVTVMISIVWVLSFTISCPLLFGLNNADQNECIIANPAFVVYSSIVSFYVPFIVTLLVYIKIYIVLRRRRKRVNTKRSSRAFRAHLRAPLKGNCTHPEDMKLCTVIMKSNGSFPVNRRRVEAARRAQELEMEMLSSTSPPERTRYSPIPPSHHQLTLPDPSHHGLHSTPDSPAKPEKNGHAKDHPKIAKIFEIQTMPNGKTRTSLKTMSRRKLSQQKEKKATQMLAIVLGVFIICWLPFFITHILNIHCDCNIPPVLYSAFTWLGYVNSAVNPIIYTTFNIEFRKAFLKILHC", "assay": "HTS Assay for Allosteric Antagonists of the Human D2 Dopamine Receptor: Primary Screen for Antagonists; also: 0% is about no effect", "conditions": "HEK293 TREx D2 cells, calcium flux, dopamine EC80; at 10 µM; stronger effect = higher value", "in_short": "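Antagonism is scored as inhibition of an EC80 dopamine-evoked calcium signal in a force-coupled, tetracycline-inducible HEK293 T-REx D2 line, with compound present 180 s before agonist.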"}
{"smiles": "Cn1c(SCC(N)=O)nc2c([nH]c3ccccc32)c1=O", "inhibition": "12.3%"}
{"smiles": "O=C(O)c1ccc(Nc2nc(-c3ccccc3)c3cc(Br)ccc3n2)cc1", "inhibition": "0.932%"}
{"smiles": "CCC(=O)N1CCc2cc(S(=O)(=O)CCC(=O)N3CCN(c4ccccc4Cl)CC3)ccc21", "inhibition": "12.3%"}
{"smiles": "CN(c1ncnc2c1c(-c1ccccc1)cn2-c1ccc(F)cc1)C1CCCCC1", "inhibition": "15.9%"}
{"smiles": "CCOC(=O)c1cc(-c2ccccc2)n(CCC(=O)Nc2ccc(C(F)(F)F)cc2)c1C", "inhibition": "-2.38%"}
{"smiles": "Cc1ccc(N(Cc2cccs2)C(=O)c2ccccc2)cc1", "inhibition": "-6.04%"}
{"smiles": "O=C(NNc1nc2cc3c(cc2s1)OCO3)c1cccc(F)c1", "inhibition": "active: 40%"}
{"smiles": "Cc1cccc(NC(=S)NC2CC3CCCC(C2)N3Cc2cccs2)c1C", "note": "(stereo unspecified)", "inhibition": "active: 68.6%"}
{"smiles": "O=C(NCCn1cc(SCc2cccc(F)c2)c2ccccc21)c1cccc(C(F)(F)F)c1", "inhibition": "-7.15%"}
{"smiles": "O=C1CCCC/C1=C/Nc1cccc(C(F)(F)F)c1", "inhibition": "active: 33.9%"}
{"smiles": "Cc1cccc(NC(=O)CSc2nc3ccc(NC(=O)COc4ccc(Cl)cc4)cc3s2)c1", "inhibition": "-3.85%"}
{"smiles": "Cc1c(NC(=O)Cc2ccc(F)cc2)cccc1-c1nc2cccnc2s1", "inhibition": "17.5%"}
{"smiles": "Fc1ccc(-c2nc(-c3cccs3)c(-c3cccs3)[nH]2)cc1", "inhibition": "10.5%"}
{"smiles": "Cc1nn(-c2ccccc2)c2c1N(CC(=O)NCc1ccc(N(C)C)cc1)C(=O)CS2", "inhibition": "12.9%"}
{"smiles": "O=C(Nc1nnc(SCc2cc(=O)c3ccccc3[nH]2)s1)c1ccccc1", "inhibition": "0.376%"}
{"smiles": "COc1cccc(-c2csc(N3CCN(C(=S)Nc4cccc(C)c4)CC3)n2)c1", "inhibition": "active: 85.8%"}
{"smiles": "Cc1cc2n(n1)C(c1ccccc1)CC(c1ccc(Br)cc1)=N2", "note": "(stereo unspecified)", "inhibition": "active: 51.6%"}
{"smiles": "COc1ccc(Cn2ccc3nc(C)c(C(=O)Nc4ccc(F)cc4)cc3c2=O)cc1", "inhibition": "-11.2%"}
{"smiles": "COCCCNC(=O)c1[nH]c2cc(OC)ccc2c1Sc1ccc(C)cc1", "inhibition": "26.2%"}
{"smiles": "CCn1cc(C(=O)NCCc2ccc(Cl)cc2)c(=O)c2cc(S(=O)(=O)N3CCc4ccccc4C3)ccc21", "inhibition": "8.37%"}
{"smiles": "Cc1ccc(-n2nnc(-c3nsc(NC(=O)c4ccccc4C)n3)c2C)cc1Cl", "inhibition": "-1.41%"}
{"smiles": "O=C(Nc1ccc(F)cc1)N1CCN(c2ccc3nnc(-c4ccc(F)cc4)n3n2)CC1", "inhibition": "-1.14%"}
{"smiles": "COc1cccc(CN2C(=O)N(c3ccc(C)cc3)C(=O)C2CC(=O)Nc2cc(OC)cc(OC)c2)c1", "note": "(stereo unspecified)", "inhibition": "-10.4%"}
{"smiles": "Cc1ccc(CNC(=O)C2CCN(C(=O)c3ccc(-n4ccc5ccccc54)s3)CC2)cc1", "inhibition": "-7.14%"}
{"smiles": "CCOC(=O)CC(NC(=O)CCc1c(C)nc2c(-c3ccccc3)c(C)nn2c1C)c1ccc(C)cc1", "note": "(stereo unspecified)", "inhibition": "-8.61%"}
{"smiles": "COc1ccc(-c2cn3c(n2)sc2cc(C(=O)NCc4cccs4)ccc23)cc1", "inhibition": "-14.1%"}
